Laboratory results taken from paper PMC10591012, “Mechanistic characterization of disulfide bond reduction of an ERAD substrate mediated by cooperation between ERdj5 and BiP” (The Journal of Biological Chemistry, 2023).

Molecular target: the molecule itself
Assay: nonreducing SDS-PAGE; purified J-chain (5 uM) with or without 2.5-10 mM GSH at 30 °C, quenched with NEM, CBB G-250 staining; disulfide-linked oligomers

B1: PA-tagged human J-chain (disulfide-linked J-chain oligomers) (natural protein)
chain: not shown
notes: immunoglobulin J-chain, human; eight cysteine residues, ~25 kDa per monomer as printed; cloned into pCAGGS with an N-terminal PA tag; Purified as disulfide-linked higher-order oligomers of unstated size; also called PA-J-chain; not shown: PA, N-terminal, kept
  binding result: binds
